Laboratory results: article PMC12136788
The other results are listed elsewhere or left out.

T1: UNK ZnF1-3 (human, UniProt Q9C0B0 31-174)
T1 sequence: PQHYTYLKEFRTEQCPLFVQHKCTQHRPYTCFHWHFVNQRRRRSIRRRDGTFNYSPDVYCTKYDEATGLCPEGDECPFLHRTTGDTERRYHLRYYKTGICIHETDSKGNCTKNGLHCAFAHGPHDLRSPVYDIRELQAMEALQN

B1: 43037672_43037792_896_CDS_ENSMUSG00000028454_ENSMUST00000098109|mouse|control|control (ssRNA)
RNA: GGGAGUUCUACAGUCCGACGAUCAGGCACAUGCGAGCGCUGAGGCUGGGCAAAGUCAAACCGCAGAGCGUCUAUCAGUACCAAAACCACCCUGGAGAAGCGGGAAGGCAUCCAGCAAGCCCCAGGCUUUCCAUGACUUCCCCACAACAGAGGAUUGAGCAUCA
B2: chr3:119217614:119217615:+_ENSG00000113845_ENST00000264244|hu_mus|FALSE|FALSE (ssRNA)
RNA: GGGAGUUCUACAGUCCGACGAUCGCUCCGCAAAGGCGGCUGCGGGGAGCGGGCGGCGGCGCGCCCAUGGCGCCCUCCUACCCGCAGAGAGACAGACACCCCAGGGUCGGCGGGCACCGUGGGAGAGGGUGACCUGUACAGCCCCAACAGAGGAUUGAGCAUCA
B3: chr7:151048522:151048523:+_ENSG00000013374_ENST00000566856|hu_mus|hu_hu_hu_mus_True|1_28 (ssRNA)
RNA: GGGAGUUCUACAGUCCGACGAUCCUGUUUCUUAUUUAUUACGAUCUUGAUGUAAUUUUCUUGAAAUCCGAAAGUUUCAGCUAUUUGACACCUCAGGUCUCUACCAGUGAUGUGCAAGCGGGUCUCCAACAAGCUUUUCCUAUCCAACAGAGGAUUGAGCAUCA
B4: 153574287_153574407_148_3pUTR_ENSG00000196504_ENST00000410080|human|control|control (ssRNA)
RNA: GGGAGUUCUACAGUCCGACGAUCGCAGUGGGGGUCUGCCACCUUCACCCUCCCCGCCCGAGUUACGUACGCCCCACAAACCUGAGGCCGCCAGGGGUAGGGUGGAGGGGGCGGGGGUAAGCAGCCUGUAGUGUUAGCGGUGGCCAACAGAGGAUUGAGCAUCA
B5: chr7:135119151:135119152:+_ENSMUSG00000030795_ENSMUST00000128851|mus_mus|FALSE|FALSE (ssRNA)
RNA: GGGAGUUCUACAGUCCGACGAUCACUUUGAAUCCCCAUUGAUAAUGCCACACACUUCAAGAAAAUGCUGUUUUCCCCCAGCUAGGGCUGGGAAAUGUCCUCAGCACAGAUGGGGGUAGGGGAAUUAGUAAUUCUUUUAAAUUACAACAGAGGAUUGAGCAUCA
B6: chr2:42509997:42509998:+_ENSG00000143924_ENST00000318522|hu_mus|hu_hu_hu_mus_True|68_78 (ssRNA)
RNA: GGGAGUUCUACAGUCCGACGAUCUCGCUGAGUCCUCUCCUCAUAAUUAAACAGGACUACUACUGAUGCAAUGAAAUAAACUAUCUCCCCUGUGGGAAGCAGGUAUACAUUCGCUCUACAGUCCUUUCCUCGAUAACCGUAUACCAACAGAGGAUUGAGCAUCA
B7: 141632510_141632630_611_CDS_ENSG00000069849_ENST00000286371|human|control|control (ssRNA)
RNA: GGGAGUUCUACAGUCCGACGAUCAUCAGGAUCAUUCAUACCACUGCAUGCUUGAAGUAAUGAAAUAGGAAACUGACAUGCAACAUAAACUGGACCCUUCUGUUCAAAAAGUGCUCCAUCAGGACAGACUGUGAGGUUCUUCUGCAACAGAGGAUUGAGCAUCA
B8: chrX:15845472:15845473:-_ENSG00000182287_ENST00000329235|hu_hu|FALSE|FALSE (ssRNA)
RNA: GGGAGUUCUACAGUCCGACGAUCCCACAAGAAGUCAUCAACAAGGGAGGAGAGUUAUGUCAGUCCAAUUUCUUCAAGAACACUACGUGGGGUUUCAGCUUCCUCCUGCAGUAGAUCAGCCUGCUCAAUUGCUUUAAGGACAUUCAACAGAGGAUUGAGCAUCA
B9: chr4:17845017:17845018:+_ENSG00000109805_ENST00000514176|hu_mus|hu_hu_hu_mus_False|1_18 (ssRNA)
RNA: GGGAGUUCUACAGUCCGACGAUCGCUCUCUUAACUUGUAUCUUCAUUAAGGAACUCUGCAAGGUUAAGUUUACUUUUCUGUAGCGCAGCUGUUUUGGCUCGUCUGGGUAAUCUCAUUUCAUUUCUGGAUGGUGGUUUGGAACUCAACAGAGGAUUGAGCAUCA
B10: chr10:70097624:70097625:+_ENSG00000096746_ENST00000354695|hu_mus|FALSE|FALSE (ssRNA)
RNA: GGGAGUUCUACAGUCCGACGAUCCUUUGAUUUCACUCCUGCUACUCCUGAAGAUCUCAAUAUACCUUGAAAGAACUGAACUAUUUCCUCUUUGCUGCAACCAAAUGGCAGUCCACGAAGUCGCACGGUCCCAUCGCUAGCGUCCAACAGAGGAUUGAGCAUCA
B11: 83263107_83263227_229_5pUTR_ENSMUSG00000031715_ENSMUST00000043359|mouse|control|control (ssRNA)
RNA: GGGAGUUCUACAGUCCGACGAUCAGCUCUCACGCGCGAGGGCUCCGCCACCGACCCGAGCCGGCCCAGCCGCGCCGCUCGCCUCGCCGUCCUCUUCCGCGGGACUCUGCUCCACAGGCGUUUACCUCACGGCGGGAAUCACGUCAACAGAGGAUUGAGCAUCA
B12: chr4:25749455:25749456:-_ENSG00000091490_ENST00000264868|hu_hu|hu_hu_hu_mus_False|28_98 (ssRNA)
RNA: GGGAGUUCUACAGUCCGACGAUCGCACUAUGACCUCCCCUAGAAAACACAGGGGGAAAAAAUGUAAACCAAUGUACAAUGUUAUCGCCUUCCCUGUGUGUGGAGUGACAAACAAUUGGCUCCUUCUAGCUGCUGGAUUUGGGACAACAGAGGAUUGAGCAUCA
B13: chr11:100445569:100445570:-_ENSMUSG00000014195_ENSMUST00000014339|mus_mus|FALSE|FALSE (ssRNA)
RNA: GGGAGUUCUACAGUCCGACGAUCUGCAUCAAAAUCGCCCAUAUUCAUGCCCUCCUCAUCCAAGUCCUGUCCACUGUCAUAACGAGUCUUUUUCUUGGGAUCAGAGAGGAUGGUAAAGGCCUCUCCCACUUCCUUAAACUUCUUCAACAGAGGAUUGAGCAUCA
B14: 120221762_120221882_267_CDS_ENSG00000164096_ENST00000399075|human|control|control (ssRNA)
RNA: GGGAGUUCUACAGUCCGACGAUCACCGGAAACUGAGCGGAGUCCGGCCGCCUGCGCAGUGCGCCGCGCCCCGGGUUCCGGAAUGCACUCUGAACCUACUCUUCCCAGCGCGCAGGCGCCUGGCUCGGCUUUCCGCUGCCUCCGCAACAGAGGAUUGAGCAUCA
B15: chr4:128860887:128860888:-_ENSMUSG00000040928_ENSMUST00000106061|mus_mus|FALSE|FALSE (ssRNA)
RNA: GGGAGUUCUACAGUCCGACGAUCGAACACGUCAUAUUGUGUGGAGCUGCUGGAGCAAUCUCUGCCUUUGCCACGAGACCAAAUGGAAAAAGGUUUCAACUCCCGCUGGCUGUUCCUUCCAGGAGACUUGUCAAAGUGAUUGACCAACAGAGGAUUGAGCAUCA
B16: chr7:126859785:126859786:-_ENSMUSG00000030942_ENSMUST00000033236|mus_mus|motif|central (ssRNA)
RNA: GGGAGUUCUACAGUCCGACGAUCACCUGCAGUGAUGAGACAUCAGAUUUGCAAACAAAACAAACAAAAACCCAAGAAAAACGGACAGCAGAAAGCAUCACAAAGUGAUUCCCAUAUAAUCCACAAUGCAGCUUCUCUAUGUGUCAACAGAGGAUUGAGCAUCA
B17: 82789453_82789656_950_CDS_ENSG00000038427_ENST00000343200|human|control|control (ssRNA)
RNA: GGGAGUUCUACAGUCCGACGAUCAUAACAGCCUACUCUGGGAGCCCGGAUGGGAUAUCUGACAGUCUGAUCAGCCAGCCAGCCUGCGUCACACUGCUCAAAUCCAUCUUCAUAGGCAGCAAAGAGCUGCUCUGGAGUUGCUAUCAACAGAGGAUUGAGCAUCA
B18: 148358182_148415857_270_CDS_ENSMUSG00000028975_ENSMUST00000103217|mouse|control|control (ssRNA)
RNA: GGGAGUUCUACAGUCCGACGAUCAACCACUGGGGUAGCUGGGCCCAGGGGUGAAGGCUCGUCGGCAGCUGUGCCCGACUGCUGGAAAGCCAGGUCAAUCUCUUCGUCUGUCAGUCCUUUCUUCUUAAGAAAUGCUCUCCUGGUCAACAGAGGAUUGAGCAUCA
B19: chr5:37680062:37680063:+_ENSMUSG00000029121_ENSMUST00000031004|mus_hu|mus_mus_mus_hu_False|1_48 (ssRNA)
RNA: GGGAGUUCUACAGUCCGACGAUCUUUGGGUGUAGCUGGUACCUCGUACACAGGACCGUCAUACAUGCCCCUGGAAACCCCUUGCAACCCGAAAACCUUAUUCCUGAUUUUGACGCGCUGGUACAGGUGCUCCGGGAAUGGCUUCAACAGAGGAUUGAGCAUCA
B20: chr1:58468927:58468928:-_ENSMUSG00000026034_ENSMUST00000148330|mus_mus|mus_mus_mus_hu_False|8_108 (ssRNA)
RNA: GGGAGUUCUACAGUCCGACGAUCAAUCUAUAAUUACGAUGUUCAUUACCUUAGCUAUGUACUUAAUGAACCAAAUUACCCAAACAAAAUAAACAUGGCAAUAUAAAAAUGUUAAGAAUUUACAAAGAUUAAAAGCUUAACUUACAACAGAGGAUUGAGCAUCA
B21: 10352105_10355188_1590_CDS_ENSG00000054523_ENST00000377093|human|control|control (ssRNA)
RNA: GGGAGUUCUACAGUCCGACGAUCCUCAGACAUUAGUGGGUCUUCAUUGAGGUUAACAAGAUGUGGGGUCUUUUUAGGUGAGAAAACCCCUAGGGUUCCUCCAUCUUCCCGAAUGGCAACUCCCAUCUCAGCCAACAAAGCCUCCAACAGAGGAUUGAGCAUCA
B22: chr1:27731043:27731044:-_ENSG00000158195_ENST00000430629|hu_hu|motif|central (ssRNA)
RNA: GGGAGUUCUACAGUCCGACGAUCGAAGAGCUCCUUUCCCAUCCUCAGGGGAAGAGUGCCUGUUUUCAAACGGCAUCCCGGCGGCACAUAUACCCCCCUUCCCUAAAAUCUUGAUGUGGCAAACACACCCAAGAACCCACAGGACAACAGAGGAUUGAGCAUCA

Molecular target: T1, UNK ZnF1-3
Assay: nsRBNS (natural sequence RNA bind-n-seq); RBNS binding buffer (assumed for nsRBNS): 25 mM Tris pH 7.5, 150 mM KCl, 3 mM MgCl2, 0.01% Triton X-100, 500 ug/ml BSA, 20 U/ml SUPERase-In, 4 C; UNK is unkempt and MSI1 is Musashi-1; names of the RNAs are library labels; protein concentration not given here; high values mean tight binding

Row | Binder | binding signal [enrichment R]
1 | B1 | 0.767
2 | B2 | 0.721
3 | B3 | 0.752
4 | B4 | 0.609
5 | B5 | 0.824
6 | B6 | 0.719
7 | B7 | 1.39
8 | B8 | 1.53
9 | B9 | 0.464
10 | B10 | 0.93
11 | B11 | 0.623
12 | B12 | 1.19
13 | B13 | 1.07
14 | B14 | 0.282
15 | B15 | 0.988
16 | B16 | 2.76
17 | B17 | 1.28
18 | B18 | 1.11
19 | B19 | 0.668
20 | B20 | 0.895
21 | B21 | 0.802
22 | B22 | 1.29
